Patent publication US20260061066A1, “ANTI-GRP78 ANTIBODY, IMMUNOCONJUGATE AND USES THEREOF” (UCT BIOSCIENCE CO., LTD., priority 2024, published 2026)

Assays:
cell surface GRP78 [1] = biological target: T1, cell surface GRP78 (Homo sapiens, UniProt P11021); assay: Internalization of anti-GRP78 mAb in cancer cells by flow cytometry; type: cell-based; settings: 30 μg/mL, 37° C. vs 4° C., 10-120 mins
T1 construct: Ovarian cancer cells were analyzed by flow cytometry for cell surface GRP78 expression; endogenous in cells; host or cells: OVCAR3, OV-90, SKOV3MT1, PL45, AsPC-1, KLM-1, MDA-MB-231, HCC1806, CEM, Raji, G-361, RPMI 8226, NCI-H929, MM.1S, THP-1, HL-60
Method: Internalization and degradation of anti-GRP78 ADC and anti-GRP78 antibody can be measured by flow cytometry. Two methods were used in this example: directly fluorescent-labeling on antibodies or the use of fluorescent-conjugated secondary antibodies to detect the primary antibodies left on the cell surface after internalization. Briefly, cancer cells were seeded in a 1×10^5 cell/well. Next, 0.5-1 mg of fluorescent-labelled anti-GRP78 antibody was added to 100 μl of target cell (cell density 1×10^6 cells/ml) in FACS buffer for 1 hour at 4° C. to enable specific binding of anti-GRP78 antibody to the cell surface targets. After incubation, the cells were washed three times with FACS buffer to remove unbound antibody. The cells were then incubated at 37° C. with 5% CO2 for antibody internalization. […] However, in some embodiments of this invention, […] was internalized into Ovarian cancer cells (OVCAR3) (FIG. 2A), melanoma cells (G-361) (FIG. 2B), and myeloma cells (RPMI 8226) (FIG. 2C) during 37° C. incubation confirmed by flow cytometry. […] (30 μg/mL) incubated at 37° C. to allow the antibodies to internalize, while incubated at 4° C. to prevent the internalization of the antibody. The samples were collected at various time points (10, 30, 60, 90 and 120 mins) and determined by comparing the decrease cell surface-bound antibody of samples incubated at 37° C. to control samples incubated at 4° C.

KLM-1 = assay: In-vitro cytotoxicity, CCK-8 assay; type: cell-based; settings: KLM-1 cells
Method: (§1) In-Vitro cytotoxicity assays of GID10-ADC, DM1 and GID10 on HL-60, HCC1806, MDA-MB-231, Raji, RPMI8226, NCI-H929, MM.1S, G-361, THP-1, PL45, AsPC-1, KLM-1, OV90, 4Tl and EL-4 cells. Cell viability was measured after 48 hours using Cell Counting Kit-8 (CCK-8) assay (DOJINDO™, Cat. No. CK04-13), as shown in Table 3. For example, on Day 0, THP-1 cells were seeded at […] cells per well in a 96-well plate and treated with diluted test compounds. The cells were incubated for 48 hours at 37° C. with 5% CO2. On Day 2, 20 μl of CCK-8 was added to each well, followed by incubation for 1-4 hours. Absorbance at 450 nm was then measured to assess cell viability and the impact of the test compounds. […] Cell viability was measured after 48 hours using the Cell Counting Kit-8 (CCK-8) assay (DOJINDO™, Cat. No. CK04-13). IC50 (M) was calculated to determine the efficacy of the antibody, DM1, and ADC on the various cancer cell lines.
(§2) In-Vitro cytotoxicity assays of Dxd-conjugated ADC and free payload Dxd on THP-1, NCI-N87, Capan-1, and KLM-1 cells. Cell viability was measured after 48 hours using Cell Counting Kit-8 (CCK-8) assay (DOJINDO™, Cat. No. CK04-13), as shown in Table 4. […] Absorbance at 450 nm was then measured to assess cell viability and the impact of the test compounds. […] Cell viability was measured after 48 hours using the Cell Counting Kit-8 (CCK-8) assay (DOJINDO™, Cat. No. CK04-13). […]

cell surface GRP78 [2] = biological target: T1, cell surface GRP78; assay: Flow cytometry binding of anti-GRP78 antibody to cancer cell surface; type: cell-based; settings: for binding to the cell surface by flow cytometry: antibody 30 mg/ml
Method: Ovarian cancer cells were analyzed by flow cytometry for cell surface GRP78 expression. The tumor cells were assessed at 4° C. 1 hr using GRP78 specific antibody, followed by Alexa Fluor 488 conjugated secondary antibodies (JACKSON IMMUNO™, 109-545-003, 115-545-003) and analysis by flow cytometry (CYTOFLEX™, BECKMAN).
Different types of cancer cells were analyzed by flow cytometry for cell surface GRP78 expression.

THP-1 cells = assay: In-vitro cytotoxicity, CCK-8 assay; type: cell-based, human
Method: as §1, §2

T1 sequence (P11021 19-654): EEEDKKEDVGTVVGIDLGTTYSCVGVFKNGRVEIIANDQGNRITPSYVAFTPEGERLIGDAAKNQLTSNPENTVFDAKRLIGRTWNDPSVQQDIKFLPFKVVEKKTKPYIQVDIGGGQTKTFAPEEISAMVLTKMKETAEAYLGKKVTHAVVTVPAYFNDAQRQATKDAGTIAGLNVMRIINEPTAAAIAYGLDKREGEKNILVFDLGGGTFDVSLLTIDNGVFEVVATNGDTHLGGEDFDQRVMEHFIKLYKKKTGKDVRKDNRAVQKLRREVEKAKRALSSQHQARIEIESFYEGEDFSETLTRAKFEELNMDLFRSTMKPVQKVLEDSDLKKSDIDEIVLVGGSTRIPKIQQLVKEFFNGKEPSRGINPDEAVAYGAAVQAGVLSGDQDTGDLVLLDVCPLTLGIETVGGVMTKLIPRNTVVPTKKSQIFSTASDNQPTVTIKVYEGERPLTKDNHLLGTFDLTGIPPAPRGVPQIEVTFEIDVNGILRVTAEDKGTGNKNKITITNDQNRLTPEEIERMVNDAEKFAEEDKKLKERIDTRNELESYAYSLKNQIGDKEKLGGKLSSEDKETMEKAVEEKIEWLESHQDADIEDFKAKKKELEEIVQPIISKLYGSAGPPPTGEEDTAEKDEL

B1: G1D10 (antibody)
heavy: EVQLVESGGGLVQPGGSLRLSCAASGFTFSNYAMNWVRQAPGKGLEWVSIIYPDSSATYYADSVKGRFTISRDNSKNTLYLQMNSLRAEDTAVYYCARYHFRWGAMDYWGQGTLVTVSS[sequence of human IgG1 constant region omitted]
light: DIQMTQSPSSLSASVGDRVTITCRASQGGSRNLNWYQQKPGKAPKLLIYKNSNLQSGVPSRFSGSGSGTDFTLTISSLQPEDFATYYCQQYGSLPWTFGQGTKVEIKRTVAAPSVFIFPPSDEQLKSGTASVVCLLNNFYPREAKVQWKVDNALQSGNSQESVTEQDSKDSTYSLSSTLTLSKADYEKHKVYACEVTHQGLSSPVTKSFNRGEC
internalization of antibody (cell surface GRP78 [1]; G-361 melanoma cells): internalized | internalization of antibody (cell surface GRP78 [1]; OVCAR3 ovarian cancer cells): internalized | internalization of antibody (cell surface GRP78 [1]; RPMI 8226 myeloma cells): internalized | cell killing by antibody alone (KLM-1): not killed | binding to the cell surface by flow cytometry (cell surface GRP78 [2]; AsPC-1 (pancreatic cancer)): 22.3% | binding to the cell surface by flow cytometry (cell surface GRP78 [2]; CEM (T-ALL)): 23.6% | binding to the cell surface by flow cytometry (cell surface GRP78 [2]; G361 (melanoma)): 63.8% | binding to the cell surface by flow cytometry (cell surface GRP78 [2]; HCC1806 (TNBC)): 50.3% | binding to the cell surface by flow cytometry (cell surface GRP78 [2]; HL-60 (AML)): 98.4% | binding to the cell surface by flow cytometry (cell surface GRP78 [2]; KLM-1 (pancreatic cancer)): 43.9% | binding to the cell surface by flow cytometry (cell surface GRP78 [2]; MDA-MB-231 (TNBC)): 27.3% | binding to the cell surface by flow cytometry (cell surface GRP78 [2]; MM.1S (multiple myeloma)): 40.5% | binding to the cell surface by flow cytometry (cell surface GRP78 [2]; NCI-H929 (multiple myeloma)): 46.5% | binding to the cell surface by flow cytometry (cell surface GRP78 [2]; OV90 (ovarian cancer)): 19.6% | binding to the cell surface by flow cytometry (cell surface GRP78 [2]; OVCAR3 (ovarian cancer), 4° C. 1 hr): 23.7% | binding to the cell surface, in words (cell surface GRP78 [2]; OVCAR3, 30 μg/mL, binding ability in general): at a higher level than the conventional anti-GRP78 antibody C38 | binding to the cell surface by flow cytometry (cell surface GRP78 [2]; PL45 (pancreatic cancer)): 21.3% | binding to the cell surface by flow cytometry (cell surface GRP78 [2]; RPMI8226 (multiple myeloma)): 74% | binding to the cell surface by flow cytometry (cell surface GRP78 [2]; Raji (DLBCL)): 24.5% | binding to the cell surface by flow cytometry (cell surface GRP78 [2]; SKOV3MT1 (ovarian cancer)): 59.1% | binding to the cell surface by flow cytometry (cell surface GRP78 [2]; THP-1 (AML)): 100% | cell killing by antibody alone (THP-1 cells): not killed
